The labels stand for the following.
B1: LINE1-mini (parent)
chain: GGCAGAGCUCAACACAGCGUGGCAAAGUGGCUGUGGCUAGACUGCC

Read counts are not given, so values of variants with three or more changes are uncertain.

Variants of B1 are the subject of the data set. Put plainly: self-cleavage, relative activity (ratio to wild type); higher = more cleavage; in vitro, sequencing; the parent is a self-cleaving ribozyme.
As for GGCAGAGCUCACCACAGCGUGGCAAAAUGGCUGUGGCUUGACUGCC [A12C G27A A39U], the self-cleavage is 0. As for GGCAGAGCUCAGCACAGCGUGGCAAAGUGGCUGUGGCUAGAAUUCC [A12G C42A G44U], the self-cleavage is 0. The same measure for GGCAGAGCUCAGCUCAGCGUGGCAAAGUGGCUGUGGCUAGAUUACU [A12G A14U C42U G44A C46U]: 0; for GGCAGAGCUCACCACAUAGUGGCAAAGUGGCUGUGGCUAGACUGCC [A12C G17U C18A]: 0.01; for GGCAGAGCUCACCACAGCCUAGCAAAGUGGCUGUGGCUAGACUGCC [A12C G19C G21A]: 0.01. In the case of GGCAGAGCUCAGCACAUCGUGGGAAGGUGUCUGUGGCUAGACUGCC [A12G G17U C23G A26G G30U], the self-cleavage is 0. For the variant GGCAGAGCUCAGCGCAGCGUGGCAAAUUGGCUGUGGGGAGACUGCC [A12G A14G G27U C37G U38G], the self-cleavage was determined as 0.02.

GGCAGAGCUCACCACAGCAUGGCAAAAUGGCUGUAGCUAGACUGCC [A12C G19A G27A G35A]: the self-cleavage came to 0.08. The value for GGCAGAGCUCACCACAGCGUCGCAUAGUGGAUCUGGCUUGACUACC [A12C G21C A25U C31A G33C A39U G44A] was 0.04; that for GGCAGAGCUCAGCACAGCGUGGGAAUGUAGCGGGGGCUAGACUGCC [A12G C23G A26U G29A U32G U34G] was 0.01; that for GGCAGAGCUCACCACAGCGUGGCAAAGUUGUUGUGGCUGGACUGCC [A12C G29U C31U A39G] was 0.01. On to GGCAGAGCUCAGCACAGCGUGGCAAGGUGGCUGUGGUUAUACUGCC [A12G A26G C37U G40U], for which the self-cleavage amounted to 0.06.

Regarding GGCAGAGCUCAGCAUAUCGUGACAAAGUGGCUGCGGCAAGACUGCC [A12G C15U G17U G22A U34C U38A], the self-cleavage was 0.03. The value for GGCAGAGCUCACCACAGCGUGGCAAAGUGGCUGUCGGUAGACUGGC [A12C G35C C37G C45G] was 0; that for GGCAGAGCUCAGCCCAGGGAGGCAAAGUGGCUGUGGUUAGACUGCC [A12G A14C C18G U20A C37U] was 0.11. The same measure for GGCAGAGCUCAGCACAGCGUAACGAAGUGUCUGGGGCUAGACUGCC [A12G G21A G22A A24G G30U U34G]: 0.02; for GGCAGAGCUCAGCACAGGGUGGAAAAGUGGCUGUGGCUAGACUGCC [A12G C18G C23A]: 0; for GGCAGAGCUCAGCCCAGCGUGGCAGAGUGGCUGUGGCUAGAGUGCC [A12G A14C A25G C42G]: 0.01. The same measure for GGCAGAGCUCACCACAGCGUCGCAAAGUGGCUCUGGCUAGACUGGC [A12C G21C G33C C45G]: 0; for GGCAGAGCUCACCACAGCGUGGCAAAGUCGCAGAGGCUAGACUGCC [A12C G29C U32A U34A]: 0. For GGCAGAGCUCACCACAGCGUGUCGAAGUGGCUGGAGCUAGACUGCC [A12C G22U A24G U34G G35A], the self-cleavage is 0.01. As for GGCAGAGCUCAGCACAGCGUGGUAAAGUGCCUGUGGCUAGAAUGCC [A12G C23U G30C C42A], the self-cleavage stood at 0.

Consider GGCAGAGCUCAGCACAGUGUGGCAAAGAGGCUGUGGCUAGACUGCC [A12G C18U U28A], for which the self-cleavage was found to be 0.06. On to GGCAGAGCUCACCACAGCGGGGCAAAGUGGCUGUGGCUAGACUGGC [A12C U20G C45G], for which the self-cleavage came to 0.06. The same measure for GGCAGAGCUCAGCCCAGCGUUGCAAAGUGGCUGUGGCUAGACUGCC [A12G A14C G21U]: 0.02. The same measure for GGCAGAGCUCACCACAGCAUGGCAAAGUGGCUGUGUCUAGACUGCC [A12C G19A G36U]: 0.05; for GGCAGAGCUCAGCACAGCAAGGCAAUGUGGCUGUGGCUAGACUGCC [A12G G19A U20A A26U]: 0.01. Consider GGCAGAGCUCAGCACCGCCUGGCUAAGUGGCUGUGGCUAAAGUGCC [A12G A16C G19C A24U G40A C42G], for which the self-cleavage is 0.08. Take GGCAGAGCUCAGCACAGCGUAGAGAAGUGGCUGUGGCUAGACUGCC [A12G G21A C23A A24G]: the self-cleavage was determined as 0.02. The value for GGCAGAGCUCAGCACAGCAUGGCAAAGUGGCUGUGGCUAGACUGCA [A12G G19A C46A] was 0.01. As for GGCAGAGCUCACCACAGCGUGGCAAAGUGUCUGUGGCUAGAUUGCC [A12C G30U C42U], the self-cleavage was determined as 0.03. The value for GGCAGAGCUCAGCACAGCGUGGCAUAGCGGCUGUGGCUAGACUGCC [A12G A25U U28C] was 0.02. The same measure for GGCAGAGCUCAGCACAGCGUGGCAAAGUGGUUGUGGCCAGAAUGCC [A12G C31U U38C C42A]: 0.05. The same measure for GGCAGAGCUCAGCACAGAGUGGCAAAGUGGCUGUGGCUAGGCAGCC [A12G C18A A41G U43A]: 0.04.

As for GGCAGAGCUCACCACAACGUGGCAAAGUGGCUGUGGCUAGCCUGGC [A12C G17A A41C C45G], the self-cleavage is 0.01. The value for GGCAGAGCUCAGCACAGCGUGGCAAAGUGGGUGGGGCUAGACUGCC [A12G C31G U34G] was 0.06. The value for GGCAGAGCUCACCACACCGUGGCAAAGCGUCUGUGGCUAGACUGCC [A12C G17C U28C G30U] was 0.03. Regarding GGCAGAGCUCAGCACCGCGUGGAAAAAUGGCUGUGGCUAGACUGCC [A12G A16C C23A G27A], the self-cleavage came to 0.03. As for GGCAGAGCUCAGCACAGCGUGGCAAAGUGGCUGUGGCUAGUGUGAC [A12G A41U C42G C45A], the self-cleavage came to 0.04. The value for GGCAGAGCUCAGCAAAACGUGGCAAAGUGGCUGUCGGUAGACCGCC [A12G C15A G17A G35C C37G U43C] was 0; that for GGCAGAGCUCAGCACAGCGUGGCGAAGUGGCUGUGGCAAGACUGCC [A12G A24G U38A] was 0.03; that for GGCAGAGCUCAGCACAGCAUGGCAAAGUGGUUGUGGCUAGACUGCC [A12G G19A C31U] was 0.01.

With GGCAGAGCUCAGAACAGCGUGCCAAAGUGGCAGUGGAUAGAAGGCC [A12G C13A G22C U32A C37A C42A U43G], the self-cleavage was 0.26. For GGCAGAGCUCAGCACAGCUUUGCAAAGUGGCCGUGGCUAUACUGAC [A12G G19U G21U U32C G40U C45A], the self-cleavage turned out to be 0.02. The value for GGCAGAGCUCAGAACAGCGUCGCAAAGUGGCUGUGGCUACACUGCC [A12G C13A G21C G40C] was 0.09; that for GGCAGAGCUCACCACACCUUGGCAAAGUGGCUGUGGCUAGACUGCC [A12C G17C G19U] was 0.09; that for GGCAGAGCUCAGCACAACGUGGCAGAGUGGCUGUGGGUAGACUGCA [A12G G17A A25G C37G C46A] was 0.01.

In the case of GGCAGAGCUCAGCACAGCUUGGCAAAGUGGCUGUGGCUAGACUCCC [A12G G19U G44C], the self-cleavage was 0.01. The same measure for GGCAGAGCUCAGCACAACGUGGCAAAAUGGCUGUGGUUAGACUGCC [A12G G17A G27A C37U]: 0.03; for GGCAGAGCUCAGCACAGCGUCGCAAAGUGGCUGUGGCUAGACUGUC [A12G G21C C45U]: 0.01; for GGCAGAGCUCACCACAGCGUUGCAAAGUGGCUGUGGCUAGAAUGCC [A12C G21U C42A]: 0.01. The same measure for GGCAGAGCUCAGAACAGGGUGGCAAAGACGCUGUAGCUAGACUGCC [A12G C13A C18G U28A G29C G35A]: 0.03; for GGCAGAGCUCACCACAGCGUUGCACAGUGGCUGUGGCUAGACGGCC [A12C G21U A25C U43G]: 0. For GGCAGAGCUCAGUACAGCGUGGCAAGGUGGCUGGGGCUAGACUGCC [A12G C13U A26G U34G], the self-cleavage amounted to 0.02.

With GGCAGAGCUCAGCACCGCGUGUCAAAGGGGCUGUGGUUAGCAUGCC [A12G A16C G22U U28G C37U A41C C42A], the self-cleavage was 0.12. The value for GGCAGAGCUCAGCAGGGCGUGGCAAAGUGGCUGUGGCUAGACUGCC [A12G C15G A16G] was 0.4.

The values above are taken from the RNAGym collection of RNA variant scans (doi:10.7554/elife.90254).
